Experimental data published in the supplement of paper PMC3334620.
Over roughly 33,000 sequences, “E-score (-0.5 to 0.5)” has its median near -0.013; the highest 2% begin near 0.3. The list shows a part of the results.

target: T1, Msn1 (UniProt P22148); experiment: PBM E-score (8-mer binding enrichment) (E-score (-0.5 to 0.5)); higher = stronger / more preferred TF binding; most listed sequences are background and not binding sites; settings: protein concentration: 200 nM; construct: GST-full length
T1 sequence: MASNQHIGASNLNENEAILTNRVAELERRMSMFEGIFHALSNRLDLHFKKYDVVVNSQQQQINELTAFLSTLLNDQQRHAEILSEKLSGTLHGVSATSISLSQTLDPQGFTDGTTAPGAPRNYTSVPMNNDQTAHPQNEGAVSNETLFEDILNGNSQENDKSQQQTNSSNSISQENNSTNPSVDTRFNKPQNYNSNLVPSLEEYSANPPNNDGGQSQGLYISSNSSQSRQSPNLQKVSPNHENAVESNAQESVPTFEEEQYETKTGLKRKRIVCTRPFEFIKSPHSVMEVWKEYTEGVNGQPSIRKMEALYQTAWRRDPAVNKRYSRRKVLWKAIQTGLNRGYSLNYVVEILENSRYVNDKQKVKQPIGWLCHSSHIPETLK
In short: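 Yeast transcription factors carrying a GST tag, as full-length proteins or DNA-binding domains, were produced by PURExpress in vitro transcription/translation. About 100-200 nM protein was applied to universal all-10-mer Agilent arrays, double-stranded by primer extension on fresh or once-stripped slides. Bound protein was detected with fluorescent anti-GST, and scans were normalised with masliner. The Universal PBM Analysis Suite gave each ungapped eight-base word, pooled with its reverse complement, an E-score, a modified Wilcoxon-Mann-Whitney statistic.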

Row | Sequence | PBM E-score
1 | TATTCAGA | 0.0873
2 | ATCGTTCC | -0.227
3 | ACCCTTAG | -0.284
4 | ATATCACA | -0.0916
5 | AAACGTAA | 0.188
6 | CACGGGTA | -0.0296
7 | CAAGGGAC | 0.184
8 | AGATGGTA | -0.021
9 | CTGCTAAA | 0.019
10 | CGTGGCGC | -0.164
11 | AGTTACAT | -0.0774
12 | GCGGGACA | 0.359
13 | AAACTAGA | 0.0886
14 | CTCTACTC | -0.0572
15 | GTTAGAGA | -0.157
16 | AATTCCCA | 0.0207
17 | AGAACTTA | 0.138
18 | ACCTAGGG | -0.032
19 | ATAGGTAC | 0.199
20 | CTTTCGAA | 0.0657
21 | AGACCATG | -0.223
22 | TAAGAGAA | 0.177
23 | GATGGCTA | 0.0368
24 | TGAACACA | -0.0391
25 | AGTCATAG | -0.0132

Row | Sequence | PBM E-score
26 | CGTCAGCC | -0.00769
27 | ATAATACA | 0.262
28 | CGAACAAC | 0.113
29 | ATAGTCCG | 0.25
30 | GATGGGCC | -0.344
31 | GATGAACC | -0.00439
32 | ATGTAACG | 0.142
33 | CAGCCAAG | -0.0807
34 | AACTGGGG | -0.307
35 | ATACTACC | -0.132
36 | AAAGACAC | 0.213
37 | CCCTTTCG | 0.0248
38 | AACTTCAC | 0.0849
39 | AGTTCTAG | -0.00733
40 | AGGCTAGC | -0.00073
41 | ACAGCAGT | -0.16
42 | CGTGGGTC | -0.167
43 | AGAGGGAC | 0.115
44 | CGAAGCGA | -0.0391
45 | AAACTCAA | 0.16
46 | ATGTTTCC | 0.0846
47 | GGCGCAAA | -0.0888
48 | AGCCCAAA | 0.156
49 | CCCGCCAA | -0.164
50 | GCCAGAGC | -0.323

Row | Sequence | PBM E-score
51 | CGGGCGGC | -0.182
52 | CAATCTCC | -0.0425
53 | AACCCGAC | 0.184
54 | AAGTGACT | 0.0348
55 | CCTGGTGA | -0.134
56 | GAGTATAA | 0.0596
57 | TCCCTAAA | 0.0496
58 | AGACGGAA | 0.0945
59 | ACGAATTA | 0.032
60 | AAAGTGAA | 0.142
61 | ACTCCACA | -0.103
62 | ATTCGGGC | -0.00679
63 | CTACTCAC | -0.236
64 | AACGGTTG | -0.00479
65 | CTAACTCA | -0.179
66 | ATCGAACA | -0.0744
67 | CTAGATTC | -0.0654
68 | CGGATGGC | -0.113
69 | GCGTTCGA | 0.0472
70 | ACATTTTA | 0.377
71 | CCCAATGC | -0.207
72 | CCCTGGTC | -0.358
73 | ACCTGAAT | 0.0755
74 | GTAATTTA | 0.0198
75 | GCGCGGAC | 0.184

Row | Sequence | PBM E-score
76 | CGTTTTAA | 0.064
77 | ACCAAAGG | -0.259
78 | ATCAAGCA | -0.116
79 | CTGCGGTC | -0.0969
80 | TATGACGA | 0.11
81 | AGTCTATG | -0.0171
82 | CCTTAAAA | 0.133
83 | ATCCATAG | -0.0469
84 | CCAGTATA | -0.078
85 | ATGAAGAA | 0.0411
86 | GCTCATAC | -0.0219
87 | GAAAGCCC | -0.0697
88 | ATACTGGC | -0.127
89 | AACGTGGT | -0.141
90 | GATCCACC | -0.127
91 | GAATTCTC | 0.0968
92 | AGAGCCCA | -0.14
93 | GGCTGGTA | -0.122
94 | CCGATTCC | -0.0466
95 | AGGTGCAG | -0.191
96 | CCATCGGG | -0.00932
97 | AGTTGTGC | -0.273
98 | TAAGGAAA | 0.056
99 | CGGTTCGA | 0.0338
100 | AGAGCCGG | -0.174

Row | Sequence | PBM E-score
101 | ATTGTTAC | 0.178
102 | CTGGCAAG | 0.12
103 | CAGTAGAG | -0.17
104 | AGCTTATG | 0.148
105 | ATTATCTC | 0.00375
106 | AAAAGACG | 0.135
107 | ACGTCTGC | 0.00514
108 | ACAAGTTA | 0.153
109 | GGTGCAAC | -0.217
110 | GAGTCGGA | 0.0815
111 | ACGCCGAG | -0.00584
112 | AGCTCGCG | -0.0186
113 | CACGACCG | -0.161
114 | AGGACGCG | 0.259
115 | ACACCTCG | -0.0586
116 | GAGGACGA | -0.026
117 | CTCCCTGC | -0.26
118 | ATTGCACG | 0.0556
119 | CGAAGAAC | 0.0649
120 | AGTCTCTA | -0.0584
121 | AATTAGTA | 0.211
122 | CCGGTAGC | -0.213
123 | CTCAGTTA | 0.0335
124 | CTCTCTCC | -0.325
125 | CGGTCGAG | -0.111

Row | Sequence | PBM E-score
126 | GTGCGAGA | 0.0839
127 | TGATGAAA | 0.0157
128 | GCAGGAAA | 0.102
129 | TCATTGGA | 0.0486
130 | CTCATTAA | 0.0526
131 | CCCTATGA | -0.0647
132 | CCATTGCG | -0.236
133 | ATAAGCAA | -0.0425
134 | TGAGTACA | 0.231
135 | TGAGACAA | 0.397
136 | AAGGCACT | -0.192
137 | ATGCGGTG | -0.273
138 | GAACCATA | 0.171
139 | CCTTGAAA | 0.0281
140 | CCGTGCAA | -0.0163
141 | AGAGTAAG | -0.0354
142 | GGATGACC | -0.177
143 | AACACTAT | 0.215
144 | AGTGTCAC | -0.0188
145 | CTGTCGTC | 0.174
146 | AGGGGTCG | -0.391
147 | CTGCTGAA | -0.0537
148 | GACCAGCC | -0.122
149 | TACAACTA | 0.0189
150 | AGCAGCAC | -0.0943

Row | Sequence | PBM E-score
151 | ATGAAACA | -0.013
152 | GACCGAGC | -0.11
153 | ACTACTCT | -0.0492
154 | ACTGGACA | 0.374
155 | ACGTGACA | 0.27
156 | AGAAACCT | -0.106
157 | ACACCGAA | 0.171
158 | GTCCGTCA | 0.225
159 | AGCGTCTA | -0.176
160 | CAGCGTTC | -0.0931
161 | AATGTATA | 0.323
162 | GCATGGAA | -0.152
163 | GCAATAAC | 0.0837
164 | GACCGACA | 0.161
165 | GCTTTATA | -0.0159
166 | AATAGGAC | 0.387
167 | AATCGTAC | 0.0195
168 | ATAGTATA | 0.0628
169 | CTTCAAAA | 0.0311
170 | CAGTCAGC | -0.297
171 | AAAATGGA | 0.294
172 | GAATCGAA | 0.015
173 | ACTCAATA | 0.194
174 | CATGTACG | 0.195
175 | AGCGCTTG | -0.0326

Row | Sequence | PBM E-score
176 | GTGGTAAC | 0.0646
177 | ATATGGAA | 0.057
178 | CGTCAAAA | 0.125
179 | CTGGTAGC | 0.0885
180 | CATAGTCG | 0.08
181 | ACCGGACG | -0.0239
182 | AAGAATGC | -0.0519
183 | CGTATTGA | -0.0137
184 | ACCCTCCG | -0.278
185 | CAAGGACA | 0.484
186 | AACAACAG | 0.19
187 | ACTATAAA | 0.254
188 | GGGCACTA | -0.144
189 | ATATCTTG | 0.0178
190 | AATCGACG | -0.04
191 | AGTTCAGC | -0.139
192 | ATGAAGTA | 0.0825
193 | TAAAAATA | 0.194
194 | AATCTCGT | -0.00803
195 | CCTCACAA | -0.0919
196 | GAATATAC | -0.0522
197 | CGATTGGA | -0.00295
198 | GTCGTCAA | 0.091
199 | AGAGTGTC | 0.229
200 | CTCAAAGA | -0.0783

Row | Sequence | PBM E-score
201 | ATATGCAT | -0.0416
202 | GTATAGTA | 0.195
203 | CAGGTCCC | -0.309
204 | AGCACATG | -0.0192
205 | ACAGAAAG | 0.00925
206 | AACAGTGC | 0.00413
207 | CTTAATAA | 0.0259
208 | GAGACAAA | 0.442
209 | CACGAGTG | -0.2
210 | GAAATAAC | 0.157
211 | GGCGGTGA | -0.131
212 | ACCTTTAC | -0.0103
213 | ACGGCTAA | 0.113
214 | GCAGTCGA | -0.189
215 | CGCGCCCA | -0.0844
216 | TAACTTAA | 0.269
217 | TATCAACA | -0.0729
218 | AAAACGAT | 0.0794
219 | CAAGGAGA | -0.0916
